Data as given in publication PMC6919601, “Identification of Plasmodium dipeptidyl aminopeptidase allosteric inhibitors by high throughput screening” (PLoS ONE, 2019).
The whole screen tested about 110,000 compounds, of which about 230 (0.21%) showed an effect of 50% or more. This is one part of the list.

Target: DPAP1 (Plasmodium falciparum, UniProt Q8IIJ9)
Assay: primary screen, percent inhibition; read by cleavage of a fluorogenic dipeptide substrate; higher = more effect of the substance
Design: species or system P. falciparum D10 trophozoite lysates; single well
Protocol: HTS was performed in black 384-well plates. The first and last two columns of each plate contained our negative (DMSO) and positive (10 μM JCP410) controls, and the 20 central columns the test compounds at 10 μM. Compounds were first diluted 50-fold into assay buffer (50 mM sodium acetate, 5 mM MgCl2, 10 mM β-mercaptoethanol, and 0.1% CHAPS, pH 5.5) from a 10 mM DMSO stock plates. One microliter of this 200 μM intermediate stock plate was dispensed into the assay plate. […] After 30 min, the reaction was quenched with 20 μL of 0.5 M acetic acid, and the fluorescent intensity measured at 523 nm (λex = 492 nm) using an Analyst HT multimode plate reader (Molecular Devices).
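Also: 30 min substrate incubation versus DMSO and 10 µM JCP410 controls.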

Chain of DPAP1 (Q8IIJ9 whole entry, looked up): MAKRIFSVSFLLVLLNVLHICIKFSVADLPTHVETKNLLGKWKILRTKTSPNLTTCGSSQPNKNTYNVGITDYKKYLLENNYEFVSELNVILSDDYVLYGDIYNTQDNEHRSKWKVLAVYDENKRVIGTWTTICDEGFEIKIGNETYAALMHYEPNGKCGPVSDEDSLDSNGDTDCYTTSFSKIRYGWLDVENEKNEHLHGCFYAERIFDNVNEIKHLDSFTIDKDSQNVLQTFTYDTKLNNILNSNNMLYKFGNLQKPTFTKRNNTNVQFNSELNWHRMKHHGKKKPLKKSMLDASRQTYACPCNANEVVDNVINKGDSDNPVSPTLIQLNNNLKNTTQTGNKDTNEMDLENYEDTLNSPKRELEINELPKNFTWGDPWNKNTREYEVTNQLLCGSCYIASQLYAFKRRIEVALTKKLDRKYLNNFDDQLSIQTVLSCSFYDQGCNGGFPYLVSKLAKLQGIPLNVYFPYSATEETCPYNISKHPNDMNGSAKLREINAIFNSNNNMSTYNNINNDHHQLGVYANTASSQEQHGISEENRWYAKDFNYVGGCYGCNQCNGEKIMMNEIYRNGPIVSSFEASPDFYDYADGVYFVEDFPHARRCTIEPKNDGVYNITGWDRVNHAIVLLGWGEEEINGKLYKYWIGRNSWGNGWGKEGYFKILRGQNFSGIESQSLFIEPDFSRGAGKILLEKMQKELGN

Row | Compound | % Inhibition @ 10 uM
1 | COc1ccc(C2C(C#N)=C(C)NC3=C2S(=O)(=O)c2ccccc23)cc1 (stereo not shown) | -0.68%
2 | COCCNCc1c(C(=O)O)n(Cc2ccccc2C)c2cc(OC)ccc12 | -3.46%
3 | Cc1c(Cl)cccc1N(CC(=O)NCc1ccncc1)S(=O)(=O)c1ccccc1 | 2.39%
4 | N#CC1=C(N)N(c2cccnc2Cl)C2=C(C(=O)CCC2)C1c1cc(CN2CCOCC2)cs1 (stereo not shown) | -1.24%
5 | CC(C)N1C(=O)/C(=C/c2ccc(Cl)cc2Cl)SC1=S | 1%
6 | COCCN1C(=O)c2ccccc2C(C(=O)O)C1c1ccccc1O (stereo not shown) | -4.33%
7 | O=C(OCC(O)CN1CCOCC1)C12CC3CC(CC(C3)C1)C2 (stereo not shown) | -0.0267%
8 | O=C(CCCCn1c(=O)[nH]c2ccsc2c1=O)N1CCN(c2ccccn2)CC1 | -3.27%
9 | O=C(NC1CCCc2ccccc21)C1c2ccccc2C(=O)N2CCc3ccccc3C12 (stereo not shown) | 1.81%
10 | CCOC(=O)/C(C#N)=C/c1c(Oc2ccccc2Cl)nc2ccccn2c1=O | 3%
11 | Cc1ccc(OC(C)C(=O)Nc2cccc(Cl)c2)cc1 (stereo not shown) | -6.57%
12 | CC(C)N1C(=O)/C(=C/Nc2ccc(Cl)cc2)C(=O)N(Cc2ccco2)C1=O | -1.06%
13 | CN(C)C(=O)C12CCC(C)(c3nc4ccccc4nc31)C2(C)C (stereo not shown) | -0.0619%
14 | CCCCN(C)C(=O)Cn1ncc2c(C)n(Cc3ccc(C)cc3)c(C)c2c1=O | -2.17%
15 | COc1ccc(C2=N/C(=C\c3ccccc3OC)C(=O)O2)c(Cl)c1 | -3.81%
16 | COc1cc(OC)c(CN2CCCCC2CO)cc1Br (stereo not shown) | 3.95%
17 | CCNC(=O)/C(=C\C=C\c1ccccc1)NC(=O)c1ccc(Br)o1 | -2.68%
18 | CCC(C(=O)N1CCC2(CC1)OCCO2)n1nc(C)c2c(C)n(-c3ccc(C)cc3)nc2c1=O (stereo not shown) | -6.93%
19 | CC1CCc2nn(CC(=O)NCCN3CCOCC3)cc2C1 (stereo not shown) | -5.19%
20 | COc1cccc(C(=O)C2=C(O)C(=O)N(c3cc(C)on3)C2c2ccc(C(C)(C)C)cc2)c1 (stereo not shown) | 7.97%
21 | CC[n+]1cn(CC(O)COCc2ccccc2)c2ccccc21 (stereo not shown) | -1.6%
22 | COc1ccc2nc(NC3=NC(=O)CC(C(=O)Nc4ccc(C)cc4)N3)nc(C)c2c1 (stereo not shown) | 2.64%
23 | O=C(CC(c1ccccc1)c1cc(Br)ccc1O)NCc1ccco1 (stereo not shown) | 0.993%
24 | Cc1nn(C)cc1CNC(=O)c1cnn2c(C(F)F)cc(-c3ccccc3)nc12 | -0.958%
25 | Cc1ccc(C/N=c2/c(-c3ccccc3)c(O)c2=O)cc1 | 3.31%

Row | Compound | % Inhibition @ 10 uM
26 | COc1ccc(-c2cc(C(F)(F)F)nc(SCC(=O)NCc3cnn(C)c3C)n2)cc1OC | 16.6%
27 | Cc1ccc2c(n1)sc1c(=O)oc(C)nc12 | -1.85%
28 | CC(=O)N1N=C(c2ccccc2)CC1c1ccc(Br)cc1 (stereo not shown) | 0.512%
29 | O=C(C1CCC(CNS(=O)(=O)c2ccccc2)CC1)N1CCc2ccccc2C1 (stereo not shown) | -4.53%
30 | COc1ccc(CN(C)S(=O)(=O)c2nnc(NC(=O)c3ccc(C)cc3)s2)cc1OC | -2.14%
31 | CC(=O)Nc1ccc(OCc2c(C)c(C)c(Br)c(C)c2C)cc1 | 3.53%
32 | Cc1nc(N2CCOCC2)c2c3c(sc2n1)CCCC3 | 3.82%
33 | CCOC(=O)C1CCN(Cc2ccoc2)CC1 | -4.61%
34 | CCCOCCOC(=O)C1=C(C)NC(=O)CC1c1ccccc1F (stereo not shown) | 0.8%
35 | Cc1c(C(=O)N(C)Cc2ccccc2)cccc1[N+](=O)[O-] | -1.62%
36 | O=C1C2C3C=CC(C3)C2C(=O)N1c1nc[nH]n1 (stereo not shown) | 1.02%
37 | Cc1cccc(NC(=O)/C=C/c2ccccc2Cl)c1C | -3.94%
38 | COC(=O)CC(NC(=O)c1ccccc1)c1ccccc1 (stereo not shown) | -7.55%
39 | COCCN1C(=O)c2oc3ccc(F)cc3c(=O)c2C1c1ccc(O)c(OC)c1 (stereo not shown) | 0.414%
40 | CCCCC1CCC(C2CCC(C(=O)O)CC2)CC1 (stereo not shown) | 4.6%
41 | CCOc1ccc(C2C(C#N)=C(N)Oc3[nH]nc(C)c32)c(OCC)c1 (stereo not shown) | 1.57%
42 | CCN1C=C(Cc2ccc(OC)cc2)C2=C(C1)C(c1ccc(OC)cc1)C(C#N)=C(N)O2 (stereo not shown) | -6.35%
43 | Cc1c(C#N)c(=O)ncn1-c1ccc(Br)cc1 | 6.08%
44 | N#CC1=C(N)Oc2c(oc(CO)cc2=O)C1c1ccc(Cl)cc1 (stereo not shown) | 0.628%
45 | C/C(=C\c1ccccc1)CN1CCN(c2ccc([N+](=O)[O-])cc2)CC1 | -5.42%
46 | COc1ccc(-c2cs/c(=N\c3cccc(C)c3)n2CCO)cc1 | -7.23%
47 | O=C(NCc1ccc(Cl)cc1)C1CCCN(S(=O)(=O)N2CCCCCC2)C1 (stereo not shown) | -3.5%
48 | O=C(CSc1nc2ncccc2o1)NCC1CCCO1 (stereo not shown) | 1.3%
49 | Cc1cc(C)c(C#N)c(SCC(=O)n2nc(C)cc2C)n1 | 6.42%
